According to article PMC4336329 (PLoS ONE, 2015):
The whole screen tested about 310,000 compounds, of which about 2,200 (0.71%) showed an effect of 50% or more. The effect is printed as a negative number. The list shows a part of the results.

Target: human ether-à-go-go-related gene (hERG) potassium channel (human, UniProt Q12809)
Assay: primary screen, population patch clamp on CHO cells stably expressing hERG

human ether-à-go-go-related gene (hERG) potassium channel, sequence (Q12809 whole entry, looked up): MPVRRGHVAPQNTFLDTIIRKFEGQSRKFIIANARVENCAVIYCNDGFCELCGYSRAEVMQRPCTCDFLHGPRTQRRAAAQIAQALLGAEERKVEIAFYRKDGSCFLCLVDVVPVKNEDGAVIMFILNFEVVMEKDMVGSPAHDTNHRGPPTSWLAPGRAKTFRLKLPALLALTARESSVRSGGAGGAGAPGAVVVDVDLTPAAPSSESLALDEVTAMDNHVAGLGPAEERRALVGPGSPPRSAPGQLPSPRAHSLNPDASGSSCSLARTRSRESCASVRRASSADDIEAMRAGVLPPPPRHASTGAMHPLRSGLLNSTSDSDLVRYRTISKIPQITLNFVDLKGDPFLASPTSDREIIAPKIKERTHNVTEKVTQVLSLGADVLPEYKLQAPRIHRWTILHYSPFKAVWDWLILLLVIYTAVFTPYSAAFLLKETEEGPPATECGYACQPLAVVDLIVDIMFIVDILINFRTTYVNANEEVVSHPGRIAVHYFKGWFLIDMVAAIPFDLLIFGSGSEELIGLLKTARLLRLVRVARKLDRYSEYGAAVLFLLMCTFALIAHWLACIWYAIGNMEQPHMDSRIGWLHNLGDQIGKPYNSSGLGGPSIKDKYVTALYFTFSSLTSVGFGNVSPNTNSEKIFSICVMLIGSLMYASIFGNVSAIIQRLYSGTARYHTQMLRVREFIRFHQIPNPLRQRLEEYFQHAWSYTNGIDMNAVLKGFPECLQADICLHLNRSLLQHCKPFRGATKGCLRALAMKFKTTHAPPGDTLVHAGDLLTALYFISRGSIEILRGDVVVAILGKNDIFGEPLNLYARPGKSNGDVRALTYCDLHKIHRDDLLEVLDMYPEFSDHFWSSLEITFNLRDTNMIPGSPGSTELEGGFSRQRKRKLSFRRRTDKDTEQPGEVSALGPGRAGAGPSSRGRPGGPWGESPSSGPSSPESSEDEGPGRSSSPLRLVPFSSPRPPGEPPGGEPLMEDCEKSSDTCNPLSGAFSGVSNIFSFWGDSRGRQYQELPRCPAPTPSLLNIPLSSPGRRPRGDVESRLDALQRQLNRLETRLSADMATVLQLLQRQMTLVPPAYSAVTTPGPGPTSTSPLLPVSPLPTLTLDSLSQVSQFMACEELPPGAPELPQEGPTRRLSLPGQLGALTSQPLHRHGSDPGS

| SMILES | hERG current change (%, negative = inhibition) at 1uM [%] |
| --- | --- |
| O=C(Nc1ccc2c(c1)OCO2)c1ccccn1 | 12.3 |
| Cc1noc(C)c1C(=O)OCC(=O)Nc1cccc(S(=O)(=O)N(C)C)c1 | 5.39 |
| CCOC(=O)C(CSCC(=O)c1ccc(Br)cc1)NC(=O)OC(C)(C)C (stereo not shown) | 4.58 |
| C=CCSc1ncc(-c2ccccc2)cn1 | 10.6 |
| COCCNC(=O)CCCn1c(=O)c2cc(OC)c(OC)cc2n(CC(=O)Nc2ccc(C)c(F)c2)c1=O | 14.5 |
| CCOc1ccc(-n2c(SCc3ccc(C#N)cc3)nnc2-c2cccnc2)cc1 | -65.1 |
| COc1ccc(NC(=O)N2CCCC(C(=O)NCc3ccccc3F)C2)cc1 (stereo not shown) | 13.3 |
| CC[C@H](C)[C@H](NC(N)=O)C(=O)NCCc1ccc(OC)cc1 | 7.72 |
| CCOC(=O)Cc1csc(NC(=O)CSc2nncn2C)n1 | 6.08 |
| CCc1ccccc1N(C(C)=O)c1nc(CN=C=S)cs1 | 4.12 |
| CC(C)(C)c1ccc(-n2ncc3c2CCCC3NC(=O)CCN2CCCC2=O)cc1 (stereo not shown) | 8.77 |
| CCn1c(=S)[nH]c2sc3c(c2c1=O)CCCCC3 | 13 |
| CCOc1ccc(S(=O)(=O)N(CC(=O)NCC(F)(F)F)Cc2ccco2)cc1 | 11 |
| Fc1ccc(C2CCCN2Cc2nc(-c3cnccn3)no2)cc1 (stereo not shown) | 6.97 |
| Cn1c(SCC(=O)Nc2cccc(S(=O)(=O)N3CCOCC3)c2)nnc1-c1ccncc1 | 2.91 |
| O=S(=O)(c1cccc(C(F)(F)F)c1)N1CCC(O)(c2cccnc2)CC1 | 2.73 |
| O=C(c1nc(SCc2ccc([N+](=O)[O-])cc2)n2ccccc12)C(F)(F)F | -15.6 |
| CSc1cccc(NC(=O)CNS(=O)(=O)c2ccccc2)c1 | 18.4 |
| O=C(CCCn1c(=S)[nH]c2ccccc2c1=O)N1CCN(c2cccc(Cl)c2)CC1 | 7.98 |
| O=C(Nc1cccc(S(=O)(=O)N2CCCCCC2)c1)c1ccc2c(c1)OCO2 | 13.7 |
| O=C(O)c1ccc(NC(=O)c2ccco2)c(NC(=O)c2ccco2)c1 | 9.85 |
| CCOc1ccccc1OCCC(=O)OCC(=O)c1ccc[nH]1 | -1.67 |
| CC(=O)Nc1ccccc1N(CC(O)Cn1c2ccccc2c2ccccc21)S(=O)(=O)c1ccc(C)cc1 (stereo not shown) | 18.3 |
| O=C(CCCOc1ccc(Cl)cc1Cl)N/N=C/c1cccc([N+](=O)[O-])c1 | 7.74 |
| Cc1ccc(NC(=O)CCc2c(C)nn(-c3ccc(N4CCCCC4)nn3)c2C)cc1C | 2.45 |
| Cc1ccc(-c2cc(C(=O)N/N=C/c3ccoc3)c3ccccc3n2)cc1 | 11.9 |
| Cn1c(Cn2nnc3ccccc32)nnc1SCC(=O)c1ccc(F)cc1 | 6.16 |
| N#CCCNS(=O)(=O)c1ccc(C(=O)OCC(=O)Nc2ccc3c(c2)OCO3)cc1 | 6.85 |

| SMILES | hERG current change (%, negative = inhibition) at 1uM [%] |
| --- | --- |
| CCOc1cc(C(=O)Nc2ccc(C)cc2C)ccc1OCC(=O)N1CCCCC1 | 3.78 |
| Cc1cccc(NC(=O)C2CCN(S(=O)(=O)c3ccc4c(c3)OCCO4)CC2)n1 | -6.28 |
| Cc1ccc(CNC(=O)CN2C(=O)NC(C)(c3cccc(Br)c3)C2=O)cc1 (stereo not shown) | 10.9 |
| CC(C)n1nnnc1SCC(=O)Nc1ccccc1F | 12.1 |
| CCCn1c(N)c(C(=O)CSc2nc(C)cs2)c(=O)[nH]c1=O | -18.3 |
| COc1ccc(NS(=O)(=O)c2ccc(O)c(C(=O)OCC(=O)NC(C)C3CC4CCC3C4)c2)cc1 (stereo not shown) | 13.6 |
| O=S(=O)(c1cccc(Cl)c1)N1CCCC1 | 10.4 |
| COc1cc([N+](=O)[O-])ccc1NC(=O)Cc1ccc(F)cc1 | 7.21 |
| CCOc1ccccc1C(=O)NCC(=O)NCCc1ccc(S(N)(=O)=O)cc1 | 13.8 |
| O=C(/C=C/c1cccc([N+](=O)[O-])c1)NCCSCc1c(Cl)cccc1Cl | 9.03 |
| COc1ccccc1C(=O)NCCC(=O)NCC(c1ccco1)N1CCCC1 (stereo not shown) | 16.4 |
| CCn1c2nc(SCCN3CCOCC3)nnc2c2cc(C)cc(C)c21 | -69.2 |
| COCCNC(=O)c1cc2oc3ccccc3c2n1C | 13.2 |
| CCC(C)/C(C)=N/NC(=O)C1COc2ccccc2O1 (stereo not shown) | 8.4 |
| CC(C)c1nc(SCC(=O)Nc2nccs2)c2ccccc2n1 | 13.8 |
| O=S(=O)(Nc1nc2ccccc2nc1Nc1ccc2c(c1)OCCO2)c1cccs1 | 9.04 |
| O=C(Cc1ccc(F)cc1)Nc1nc(-c2ccc(F)c(F)c2)cs1 | 15.9 |
| CCOC(=O)N1CCN(C(=O)CC(C)S(=O)(=O)c2cc3c(cc2C)NC(=O)CO3)CC1 (stereo not shown) | 6.05 |
| COc1ccc(NC(=O)C2CSC3c4ccccc4C(=O)N23)cc1 (stereo not shown) | 11.2 |
| O=C(Nc1ccc(S(=O)(=O)N2CCOCC2)cc1)c1ccc([N+](=O)[O-])s1 | 8.45 |
| O=c1[nH]c(=O)n(Cc2ccc(F)cc2)c(O)c1C=NCC1CCCO1 (stereo not shown) | 5.85 |
| COc1ccc(NC(=O)NCCc2c[nH]c3ccccc23)c(OC)c1 | 8.55 |
| COc1cc(NC(=O)COC(=O)CNC(=O)c2ccc(C)s2)cc(OC)c1 | 9.55 |
| CN1C(=O)c2ccccc2Sc2ccc(NC(=O)N3CCOCC3)cc21 | -0.0276 |
| COc1cccc(N2CCN(C(=O)c3ccc(CS(=O)c4ccc(C)cc4)o3)CC2)c1 (stereo not shown) | -14.8 |
| CN(C)C(=O)/C(=C/c1cn(-c2ccccc2)nc1-c1cccc([N+](=O)[O-])c1)NC(=O)c1ccccc1 | 1.97 |
| COc1cc(OC)nc(Oc2cccc(Cl)c2C)n1 | 14 |
